Experimental data from the supplement of paper PMC10369915.
The list shows a part of the results. Cut-off read from the data, not from the text of the source: active = 3.2 or more and inactive = the rest. Only a few entries rise above the background.

B1: CTNNB1_Y30_G34R (peptide)
chain: WQQQSYLDSRI
B2: CTNNB1_Y30_I35S (peptide)
chain: WQQQSYLDSGS
B3: CTNND1_Y213 (peptide)
chain: YPPDGYSRHYE
B4: CTNND1_Y213_Y217C_YF (peptide)
chain: FPPDGYSRHCE
B5: CTNND1_Y213_YF (peptide)
chain: FPPDGYSRHFE
B6: CTNND1_Y217 (peptide)
chain: GYSRHYEDGYP
B7: CTNND1_Y217_Y217C_YF (peptide)
chain: GFSRHCEDGFP
B8: CTNND1_Y217_YF (peptide)
chain: GFSRHYEDGFP
B9: CTNND1_Y221_Y217C (peptide)
chain: HCEDGYPGGSD
B10: CTNND1_Y221_YF (peptide)
chain: HFEDGYPGGSD
B11: CTNND2_Y1154 (peptide)
chain: PSRKDYETYQP
B12: CTNND2_Y1154_P1159S (peptide)
chain: PSRKDYETYQS
B13: CTNND2_Y1157_P1159S (peptide)
chain: KDYETYQSFQN
B14: CTNND2_Y1217 (peptide)
chain: YETSHYPASPD
B15: CTNND2_Y508 (peptide)
chain: YRQLQYCPSVE
B16: CTNND2_Y508_Q507P_YF (peptide)
chain: FRQLPYCPSVE
B17: CTNS_Y143 (peptide)
chain: WSISFYPQVIM
B18: CTPS1_Y567_S571I (peptide)
chain: SPRDTYSDRIG

These binders were tested against SHP2 C-SH2 domain E139D (assay: enrichment score (SH2-bound / input frequency) (ratio); bacterial display of known human phosphotyrosine sites (pTyr-Var adds point mutants) read by sequencing; higher = stronger binding; tyrosines were phosphorylated by kinases first). Details: peptide library: pTyr-Var.
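Note: displayed peptides selected on beads carrying the immobilized SH2 domain, with library peptides lacking any tyrosine serving as negative controls.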

Enrichment score, inactive:
B1 0.781, B2 0.815, B3 0.666, B4 0.711, B5 0.856, B6 0.773, B7 0.725, B8 0.782, B9 0.814, B10 0.499, B11 0.886, B12 0.637, B13 0.727, B14 0.509, B15 0.808, B16 1.08, B17 0.809, B18 0.483

The binders below were run against SHP2 C-SH2 domain wild-type in the same assay as above. Details: peptide library: pTyr-Var.

Enrichment score, inactive:
B1 0.837, B2 0.894, B3 0.636, B4 1.01, B5 0.643, B6 0.54, B7 0.82, B8 0.781, B9 0.621, B10 0.417, B11 0.653, B12 0.671, B13 0.761, B14 0.491, B15 0.796, B16 1.25, B17 0.929, B18 0.472

The binders below were run against SHP2 N-SH2 domain L43F in the same assay as above. Details: peptide library: pTyr-Var.

Enrichment score, inactive:
B1 0.838, B2 1.05, B3 0.627, B4 0.736, B5 0.707, B6 0.604, B7 0.678, B8 0.844, B9 0.723, B10 0.54, B11 0.696, B12 0.82, B13 0.786, B14 0.53, B15 0.777, B16 0.892, B17 0.741, B18 0.522

Each binder was assayed against SHP2 N-SH2 domain T42A in the same assay as above. Details: peptide library: pTyr-Var.

Enrichment score, inactive:
B1 0.773, B2 0.622, B3 0.672, B4 0.618, B5 0.734, B6 0.555, B7 0.614, B8 0.616, B9 0.921, B10 0.508, B11 0.394, B12 0.716, B13 0.841, B14 0.623, B15 0.708, B16 1, B17 0.737, B18 0.317

These binders were tested against SHP2 N-SH2 domain T52S in the same assay as above. Details: peptide library: pTyr-Var.

Enrichment score, inactive:
B1 0.721, B2 0.754, B3 0.585, B4 0.799, B5 0.865, B6 0.56, B7 0.63, B8 0.686, B9 0.728, B10 0.55, B11 0.67, B12 0.584, B13 0.851, B14 0.419, B15 0.653, B16 0.927, B17 0.731, B18 0.616

Each binder was assayed against SHP2 N-SH2 domain wild-type in the same assay as above. Details: peptide library: pTyr-Var.

Enrichment score, inactive:
B1 0.733, B2 0.823, B3 0.367, B4 0.827, B5 0.943, B6 0.561, B7 0.827, B8 0.849, B9 0.63, B10 0.534, B11 0.743, B12 0.751, B13 1.14, B14 0.465, B15 0.836, B16 1.33, B17 1.03, B18 0.747
